Data taken from the supplement of paper PMC10126150.
Values marked as one replicate rest on one cluster of the flow cell; about a third of the high ones do not repeat.

Tested on: ATP
Test: switch fluorescence ratio, 500 uM ATP over buffer (Cy3 cluster intensity, sum of 5 cycles each) (fold (ratio)); higher = stronger signal-on switching upon ATP binding; sequences stand for … in TCGTCGGCAGCGTCAGATGTGTATAAGAGACAGTTTTTTTTTTTTTTTTTTTTTTTTT…TC
Conditions: aptamer strand: ATP DNA aptamer (quencher-CACCTGGGGGAGTATTGCGGAGGAAGG + anchor), 100 nM annealed; ATP concentration: 500 uM; one replicate
In short: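 The quencher-labelled ATP aptamer, at 100 nM, was annealed to Cy3-labelled switching-strand clusters on a modified Illumina MiSeq flow-cell. The clusters were imaged in selection buffer, then after 15 min with 500 uM ATP at 22 °C, and this buffer/ATP cycle ran five times with NaOH stripping and re-annealing between runs. Per-cluster fluorescence ratios, summed target-cycle over summed buffer-cycle Cy3 intensity, were averaged per switch-domain sequence. Clusters outside 100-1000 RFU were excluded.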
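Also: ATP exposure 15 min at 22 °C before imaging.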

Sequence	switch fluorescence ratio
CTGAGACGCT	1.01
TTAGGCTGG	1
AATCATAGGT	1
GGCCGTGGCC	1.04
TGTATTGATA	1.02
CGCGTCTTGA	1
ACTAATGAGC	0.989
AGTTAGCGCC	1.08
AGAGTTTACG	1.01
AGTCTATACT	1.09
ACCCGTGCAT	1.04
TGGGACTGAT	1.02
TAGGTCCCTC	0.979
TTGTTCGAGT	0.975
TATCGGGCG	0.984
TTGGGATTAC	1.03
ATCGGTTGCT	1
GGTTACTTGC	1.01
GCGGGGTGCT	0.964
TTAAATGCAA	1.08
ATATTGTTTC	1.01
GATCGCATCA	1.06
TAGAAAAG	1.01
ATAATTTATG	1.01
TAGGGGATCG	1.05
GTTGTGGCAC	1.02

Sequence	switch fluorescence ratio
ACTTTGTAC	1.01
GGGAGCCCGT	1
GAATTTGGGC	1.01
ACCATCGCCA	1.07
TACGGTTGCG	0.99
GCGCTTTTTA	1.03
GTGTAAAAGA	0.972
AAATCGGCCA	0.999
TATTCTTGTC	0.98
CTTCCATATG	0.965
ACTCGGTCC	1.07
TCGTGCTTCG	1.04
CAGACTTTTG	0.919
TGGACGTATT	1.03
ATTGATATAC	1.1
TGTTGCTATT	0.993
ACCGTGCTGG	1.01
TTTCGGCTCG	1.01
GTAGCAGGAT	1.03
GAGTTGCTTG	1.04
AGGGTTAAA	0.994
AGCGGAATTT	0.988
GTCGCGAATT	1.05
AATTGTCAGC	0.976
ATGCTGGATT	0.986
CATGAATGAA	1.03

Sequence	switch fluorescence ratio
ATCGTGTTTT	0.978
TATCTATCGC	1.02
ACGGGTACTG	0.99
CTGAACGCTG	2.94
GATTGAGGTT	0.976
TAGAAGTAAT	0.988
CAGATGTCAT	1.02
TTCACGAAAC	1.05
CTGTTGCTTT	0.991
GATGCTCCTC	1.08
ATGTATTATT	1.01
CCTTTCTGGT	0.996
CCACGTCCA	1.1
ACGAGGGGTT	0.993
CCAGAGAT	1.02
GAAAGTGAGG	1.02
CAGCGGTACG	1.07
CGCTGGCAAA	1.15
GTTCCCATCA	0.984
TTCGGGAGTT	1.05
ATGTTGCGG	1.02
TTAGATGAGA	0.975
AGGCTATACG	1.08
TACCCTACTT	1.27
CGTACGTAGG	1.01
TGGGCGTA	0.99

Sequence	switch fluorescence ratio
TTTCTGAACT	1.06
CGTTAGTTGT	1.01
AAAATTATAG	0.975
GGGCTAACTT	0.983
TTCCAGGCAT	1.04
CCGTTTACAC	1.44
AGAATTTAC	1.08
CGGGGCCCTA	1.03
GTATTCGGAT	0.989
ACAATTACCA	1.14
CAACTGCGGT	1
TTTATCATGA	0.967
CGGCCAGACA	1.01
AGCTTTTGGA	1.01
ATCTCAACG	1.01
CGGCGGTGCC	0.948
AGTGTATTTT	0.989
AGTGTCTGGC	1.02
CCAGAAACCC	1
GTGTTGTTTG	0.989
AACTACAAGC	1.02
GGCGCCGTAA	1.03
AGCACTGGGG	0.997
CCAATATTCC	2.4
TTACTCAGTA	1.03
GATGAAAACT	1.01

Sequence	switch fluorescence ratio
CAAAATGAGT	1.02
GATAAAGTTT	0.978
AAGTTAATGC	1.2
GTTATCGAAA	1
GCCCCATAAA	0.993
CAGCTTTTA	0.94
TTCGGGTA	1.04
GCTCTGCTGT	1.39
CGGGCTTGCC	1.04
AGGTAGACAA	1.03
AACTTTATT	1.02
CTCGGAGGCT	1.03
ATGGGGGCGC	1.03
ATTCCAGCGT	1.01
AAGGGAGTGG	0.981
GCATTTACTC	2.43
GCCGACAGTC	1.04
TATTGATT	0.972
CCGATTTAGA	1.58
CCAACGGCCC	1.1
ACATGCATTG	1.03
CACGTCCAAT	1.12
GGGTAGAATA	1.03
GGTGGTATAA	0.974
ATCCAGAGGT	1.04
GAATCCCCTT	1.05

Sequence	switch fluorescence ratio
GGAGCACGCC	1.12
GAACCGGCA	1.1
TTGTGCTTCC	1.49
CAGTGGTGTA	0.954
TAAGATCCAG	1.01
GCTCTATTGG	1.01
AAGCAGGTA	1.01
CAAGGTTGGT	0.978
TAGTTAAAGG	1.01
AGTTATTGGG	0.97
GTTTGTTAGC	0.983
GAAGGGAGTT	0.983
AAGGGTTGCC	0.984
ATGTGTAATA	0.955
TCTTTATTCT	0.997
ATATTTGCAT	0.973
CAAATTACGC	1.07
TTTTGGTA	0.988
TATGTGTAAT	0.981
GTCCCCCGTG	2.63
AGGACATGCC	1
GGATCGAATT	0.994
GGTCGGTAAC	0.991
TTCTTAGGC	0.963
TTATCCTTGA	0.993
ATTCCTACGG	1.36

Sequence	switch fluorescence ratio
TCTGAGGCGT	1.03
TATGTTCTTT	0.992
TTATGATCAA	0.996
TCGTTGTGGA	1.07
GGTTGCACTA	1.02
CAGGACGTTG	0.973
TCAAAGACA	1.01
TGGGTAGGGC	0.979
GTTTTTCAAA	1.04
GATATCTAGG	1.02
TATCATGTTT	1.07
ACACAGACGG	1.61
GCCTTTCCTT	2.01
CGGATCGCTT	1.13
TGGTATTTG	1.03
TGTAACAGT	1.06
TCTTCAAGAG	1.01
AGGGTGCATG	1.01
TCAGGGCCTA	1.05
AATGCCCTAT	0.97
GCTTGGTTGA	0.993
CGATACTGGT	1
ATGTGTATAC	1.04
AGCAGTTGAG	0.999
CATGGCTAGC	1.01
CTGATGGCGG	1.04

Sequence	switch fluorescence ratio
CAGATTACTG	0.941
GGGGATTGCA	1.04
GTGAGATATA	1.03
GTCATCAGTA	0.975
CATCGTTATA	1.01
GATAGCCTTT	1
CGGTACTATG	1
AGATCCCGAT	1.01
CCGGAACGGA	0.929
ACAGTTTGTG	1.01
AGATTAATGG	1.02
GGCTACTGTA	1.16
CCCAGACGGC	1.02
TATGGAGCA	1.17
GAACCCTCTT	1.08
GCATCGTGGA	0.999
AATTTTATCC	1.05
GTCAGGCGCG	0.989
CTAAGTACC	1.27
